{"source": "PubChem BioAssay AID504832", "about": "(National Center for Advancing Translational Sciences (NCATS), 2011)", "note": "About 18,000 (5.8%) of roughly 310,000 compounds were called active. Inconclusive means that the source gave no clear call. Such entries were picked first, then a sample of the others. Calls come from the whole dose curve; as a rule, active = well fitted inhibition curve with a large enough effect; inconclusive = small, poorly fitted or top-dose-only effect, or another doubt; inactive = no such curve, though single readings can be large or run the other way. Potencies of inconclusive entries are left out as doubtful fits. % is set by controls: 0 for no effect and ±100 for the full control effect; potency is the fitted concentration of half-maximal effect; tags give direction and shape of the fitted curve.", "data": [{"test": "Primary qHTS for delayed death inhibitors of the malarial parasite plastid, 48 hour incubation", "conditions": "P. falciparum luciferase growth in erythrocytes; series mostly up to 28.7 µM; activity change, negative = inhibition: at the top concentration", "in_short": "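Luciferase-expressing P. falciparum in infected erythrocytes (2% hematocrit, 0.1% parasitemia final) in RPMI 1640/0.5% Albumax were exposed to compound for 48 hours at 37 C, 5% CO2; growth read as luminescence.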", "values": [{"smiles": "COc1ccc([N+](=O)[O-])cc1-n1cccc1", "activity change, negative = inhibition": "inactive: 9.65%"}, {"smiles": "O=C(NCc1cccs1)C1CCN(S(=O)(=O)c2ccc(Cl)cc2)CC1", "Potency": "active: 1.85 µM"}, {"smiles": "Cc1nn(-c2ccccc2)cc1/C=N/NS(=O)(=O)c1ccccc1", "activity change, negative = inhibition": "inactive: 30.5%"}, {"smiles": "Cc1nc2ccc(S(=O)(=O)NC(C(=O)NCc3cccs3)C(C)C)cc2s1", "note": "(stereo not drawn)", "Potency": "inconclusive [inhibitor, partial curve, poor fit]"}, {"smiles": "CCC(=NC1CCN(Cc2ccccc2)CC1)c1c(O)[nH]c(=O)[nH]c1=O", "Potency": "inconclusive [inhibitor, single point]"}, {"smiles": "COCCN1CN(S(=O)(=O)c2ccc(Cl)cc2)c2nc3ccccc3nc21", "Potency": "inconclusive [inhibitor, partial curve, poor fit]"}, {"smiles": "CC(C)Oc1ccc(C(=O)Nc2c3c(nn2-c2ccccc2)CS(=O)(=O)C3)cc1", "Potency": "inconclusive [inhibitor, partial curve, poor fit]"}, {"smiles": "CCOC(=O)c1c(S(=O)(=O)Nc2ccc(CN3CCC(C)CC3)cc2)c(C)n(C)c1C", "Potency": "inconclusive [inhibitor, single point]"}, {"smiles": "CC1CN(C(=S)Nc2ccc(S(N)(=O)=O)cc2)CC(C)O1", "note": "(stereo not drawn)", "activity change, negative = inhibition": "inactive: -0.819%"}, {"smiles": "COc1ccc(C)cc1NC(=O)COC(=O)c1c(C)nn(-c2ccccc2)c1C", "Potency": "inconclusive [inhibitor, single point]"}, {"smiles": "Nc1cc(=O)[nH]c(SCc2nc3ccccc3n2Cc2ccccc2)n1", "Potency": "inconclusive [inhibitor, partial curve]"}, {"smiles": "Cc1ccc(-c2nnn(C(C)C(=O)N3c4ccccc4CCc4ccccc43)n2)cc1", "note": "(stereo not drawn)", "Potency": "inconclusive [inhibitor, partial curve, poor fit]"}, {"smiles": "Cc1cc(C(=O)CSc2nc3ccccc3n2CCC#N)c(C)n1Cc1cccs1", "Potency": "inconclusive [inhibitor, single point]"}, {"smiles": "Cc1cc(C)nc(Nc2nc3ccccc3o2)n1", "Potency": "inconclusive [inhibitor, full curve]"}, {"smiles": "Cc1nc2nc3c(cn2n1)C(=O)CC(c1ccccc1)C3", "note": "(stereo not drawn)", "Potency": "inconclusive [inhibitor, single point]"}, {"smiles": "CCN(CC)CC(=O)Nc1cccc2c1C(=O)c1ccccc1C2=O", "activity change, negative = inhibition": "inactive: 19%"}, {"smiles": "COC(=O)C1=NNC2(c3ccc(C)cc3)C(=O)N(c3ccc(C)cc3)C(=O)C12", "note": "(stereo not drawn)", "Potency": "inconclusive [inhibitor, single point]"}, {"smiles": "CC(C)CNC(=O)COC(=O)c1c2c(nc3ccccc13)CCC2", "Potency": "inconclusive [inhibitor, single point]"}]}]}
